The structures appear in SMILES notation. Structures can show the parent of a compound that is named as a salt. The list shows a part of the results. Single values are uncertain, as repeats are few or missing.
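Further: monoclonal Beas-2B line stably carrying CMV promoter-driven AQP5-HiBiT, 5,000 cells per well in 384-well plates, lytic HiBiT plus LgBiT NanoLuc luminescence, FDA-approved drug library screen.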

This experiment has as its system Beas-2B AQP5-HiBiT reporter cells. Description: AQP5-HiBiT luminescence relative to vehicle (ratio to vehicle); higher = higher AQP5-HiBiT protein abundance. As to conditions: 10 µM; 18 h. Background: The HiBiT peptide binds its large partner to form an active luciferase.
As to `CN(C)CCC=C1c2ccccc2COc2ccccc21` [Doxepin hydrochloride], the AQP5-HiBiT luminescence is 1.57.

Regarding `CN(C)[C@@H]1C(O)=C(C(N)=O)C(=O)[C@@]2(O)C(O)=C3C(=O)c4c(O)cccc4[C@@](C)(O)[C@H]3C[C@@H]12` [Tetracycline hydrochloride], the AQP5-HiBiT luminescence is 1.02.

As for `CC[C@@H]([C@H](C)O)n1ncn(-c2ccc(N3CCN(c4ccc(OC[C@@H]5CO[C@@](Cn6cncn6)(c6ccc(F)cc6F)C5)cc4)CC3)cc2)c1=O` [Posaconazole], the AQP5-HiBiT luminescence is 0.838.

Consider `CC(=O)OCC(=O)[C@@]1(O)CC[C@H]2[C@@H]3CCC4=CC(=O)CC[C@]4(C)[C@@]3(F)[C@@H](O)C[C@@]21C` [Fludrocortisone acetate], for which the AQP5-HiBiT luminescence is 0.692.

With `CCN(CC)CC#CCOC(=O)C(O)(c1ccccc1)C1CCCCC1` (stereo not given) [Oxybutynin], the AQP5-HiBiT luminescence worked out at 1.04.

`CCOc1nc2cccc(C(=O)O)c2n1Cc1ccc(-c2ccccc2-c2noc(=O)[nH]2)cc1` [Azilsartan]: the AQP5-HiBiT luminescence amounted to 0.911.

In the case of `CC(C)(O)c1ccccc1CC[C@@H](SCC1(CC(=O)O)CC1)c1cccc(/C=C/c2ccc3ccc(Cl)cc3n2)c1` [Montelukast], the AQP5-HiBiT luminescence was found to be 0.914.

As for `O=C(O[C@H]1CN2CCC1CC2)N1CCc2ccccc2[C@@H]1c1ccccc1` [Solifenacin succinate], the AQP5-HiBiT luminescence was 1.54.

As for `O=C(O)COCCN1CCN(C(c2ccccc2)c2ccc(Cl)cc2)CC1` (stereo not given) [Cetirizine 2hydrochloride], the AQP5-HiBiT luminescence amounted to 1.36.

For the molecule `O=C(Nc1ccc([N+](=O)[O-])cc1Cl)c1cc(Cl)ccc1O` [Niclosamide], the AQP5-HiBiT luminescence is 14.1.

As to `CC(C)(C)NCC(O)COc1cccc2c1CCC(=O)N2` (stereo not given) [Carteolol hydrochloride], the AQP5-HiBiT luminescence was 1.02.

For `O=C1N=C(O)NC1(c1ccccc1)c1ccccc1` [Phenytoin sodium], the AQP5-HiBiT luminescence amounted to 1.01.

As to `C[C@H](CCC(=O)O)[C@H]1CC[C@H]2[C@@H]3CC[C@@H]4C[C@H](O)CC[C@]4(C)[C@H]3CC[C@]12C` [Lithocholic acid], the AQP5-HiBiT luminescence turned out to be 0.966.

As to `Cc1cccc(C)c1NC(=O)C1CCCCN1C` (stereo not given) [Mepivacaine hydrochloride], the AQP5-HiBiT luminescence amounted to 0.777.

For `O=C(O)CCCc1ccccc1` [Sodium Phenylbutyrate], the AQP5-HiBiT luminescence is 1.04.

As for `C[C@@H](O)[C@@H]1NC(=O)[C@H](CCCCN)NC(=O)[C@@H](Cc2c[nH]c3ccccc23)NC(=O)[C@H](Cc2ccccc2)NC(=O)[C@@H](NC(=O)[C@H](N)Cc2ccccc2)CSSC[C@@H](C(=O)N[C@H](CO)[C@@H](C)O)NC1=O` [Octreotide Acetate], the AQP5-HiBiT luminescence is 1.01.

On to `CC(=O)Nc1ccc(O)cc1` [Acetaminophen], for which the AQP5-HiBiT luminescence is 0.945.

Regarding `CS(=O)(=O)CCNCc1ccc(-c2ccc3ncnc(Nc4ccc(OCc5cccc(F)c5)c(Cl)c4)c3c2)o1` [Lapatinib ditosylate], the AQP5-HiBiT luminescence was 1.03.

Regarding `Cc1onc(-c2ccccc2)c1C(=O)N[C@@H]1C(=O)N2[C@@H]1SC(C)(C)[C@@H]2C(=O)O` [Oxacillin sodium], the AQP5-HiBiT luminescence is 0.953.

With `NS(=O)(=O)c1cc2c(cc1Cl)N=CNS2(=O)=O` [Chlorothiazide], the AQP5-HiBiT luminescence was found to be 0.93.

As for `Cc1c(C)c2c(c(C)c1O)CC[C@@](C)(CCC[C@H](C)CCC[C@H](C)CCCC(C)C)O2` [Vitamin E], the AQP5-HiBiT luminescence was 0.952.

For `C[C@H]1CN(C[C@H](Cc2ccccc2)C(=O)NCC(=O)O)CC[C@@]1(C)c1cccc(O)c1` [Alvimopan], the AQP5-HiBiT luminescence was found to be 0.733.

As to `Cc1cc(Nc2ncc(Cl)c(Nc3ccccc3S(=O)(=O)C(C)C)n2)c(OC(C)C)cc1C1CCNCC1` [LDK378(Ceritinib)], the AQP5-HiBiT luminescence stood at 0.282.

Take `CCCCC1C(=O)N(c2ccccc2)N(c2ccccc2)C1=O` [Phenylbutazone]: the AQP5-HiBiT luminescence worked out at 0.934.

Regarding `Brc1c(NC2=NCCN2)ccc2nccnc12` [Brimonidine Tartrate], the AQP5-HiBiT luminescence turned out to be 0.874.

With `CCCCOc1ccc(OCCCN2CCOCC2)cc1` [Pramoxine hydrochloride], the AQP5-HiBiT luminescence came out at 0.791.

For the molecule `CO/N=C(\C(=O)N[C@@H]1C(=O)N2C(C(=O)O)=C(CSc3nc(=O)c(O)nn3C)CS[C@H]12)c1csc(N)n1` [Ceftriaxone sodium], the AQP5-HiBiT luminescence is 0.846.

Regarding `Nc1nc2ccc(OC(F)(F)F)cc2s1` [Riluzole], the AQP5-HiBiT luminescence turned out to be 1.35.

As for `C[C@H](CCC(=O)O)[C@H]1CC[C@H]2[C@@H]3CC[C@@H]4C[C@H](O)CC[C@]4(C)[C@H]3C[C@H](O)[C@]12C` [Deoxycholic acid], the AQP5-HiBiT luminescence was 0.731.

As for `CCc1nc(N)nc(N)c1-c1ccc(Cl)cc1` [Pyrimethamine], the AQP5-HiBiT luminescence is 0.834.

For the molecule `N#C/C(=C1/SC[C@@H](c2ccc(Cl)cc2Cl)S1)n1ccnc1` [Luliconazole], the AQP5-HiBiT luminescence amounted to 0.698.

As to `CCOc1cc([C@@H](CS(C)(=O)=O)N2C(=O)c3cccc(NC(C)=O)c3C2=O)ccc1OC`, the AQP5-HiBiT luminescence stood at 0.561.

For `CCOC(=O)C1=C(COCCN)NC(C)=C(C(=O)OC)C1c1ccccc1Cl` (stereo not given) [Amlodipine], the AQP5-HiBiT luminescence was found to be 2.05.

For the molecule `CN(C)CCCN1c2ccccc2Sc2ccccc21` [Promazine hydrochloride], the AQP5-HiBiT luminescence is 1.09.

On to `CC(C)(C(=O)c1cccnc1)c1cccnc1` [Metyrapone], for which the AQP5-HiBiT luminescence worked out at 0.804.

With `CN1CCCCC1CCN1c2ccccc2Sc2ccc([S+](C)[O-])cc21` (stereo not given) [Mesoridazine Besylate], the AQP5-HiBiT luminescence stood at 1.93.

In the case of `C[C@]12C=CC(=O)C=C1CC[C@@H]1[C@@H]2C(=O)C[C@@]2(C)[C@H]1CC[C@]2(O)C(=O)CO` [Prednisone], the AQP5-HiBiT luminescence was determined as 0.958.

On to `CSc1ccc2c(c1)N(CCC1CCCCN1C)c1ccccc1S2` (stereo not given) [Thioridazine hydrochloride], for which the AQP5-HiBiT luminescence came to 1.45.

With `O=C1CN2Cc3c(ccc(Cl)c3Cl)N=C2N1` [Anagrelide], the AQP5-HiBiT luminescence is 0.816.

In the case of `Cc1ccc(N(CC2=NCCN2)c2cccc(O)c2)cc1` [Phentolamine mesilate], the AQP5-HiBiT luminescence stood at 1.02.

The values are drawn from the supplement of paper PMC8821664.
